Patent US8613929B2, “Methods and compositions for targeting agents into and across the blood-brain barrier and other endothelial cell microvascular barriers” (priority 2003, dated 2013)

Target: LPSS14 (DTR) (Bos taurus, UniProt E1BIN8)
Format: cell-based, bovine

Sequence of LPSS14 (DTR) (E1BIN8 24-208 limits assumed): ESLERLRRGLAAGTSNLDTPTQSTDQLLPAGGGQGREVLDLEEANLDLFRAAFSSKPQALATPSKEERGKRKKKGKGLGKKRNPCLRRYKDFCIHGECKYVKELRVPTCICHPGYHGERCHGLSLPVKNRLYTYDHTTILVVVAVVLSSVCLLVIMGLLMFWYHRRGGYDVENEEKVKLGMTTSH

## soluble HB-EGF: soluble heparin-binding EGF-like growth factor, non-competitive antagonist for the DTR by binding to the receptor-binding domain of DT
100 ng/ml DT preincubated 1 hour with soluble HB-EGF 0.1-10 microgram/ml, apical (FIG. 7)
  toxic effect of DT on BCEC-Astrocytes cocultures after preincubation of DT: decreased in a concentration dependent manner
100 ng/ml DT preincubated with 10 microgram/ml of soluble HB-EGF, even after an overnight assessment
  DT-induced toxic effect on BCEC: completely prevented
